Reference: article PMC4336329 (PLoS ONE, 2015)
The campaign covered roughly 310,000 compounds. About 14,000 (4.5%) showed an effect of 50% or more. The effect is printed as a negative number. Some of the results follow.

The compounds below were run against human ether-à-go-go-related gene (hERG) potassium channel (human, UniProt Q12809) (assay: primary screen, population patch clamp on CHO cells stably expressing hERG).
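Note: peak tail current of the secondary pulse compared with the same well before compound.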

human ether-à-go-go-related gene (hERG) potassium channel, sequence (Q12809 whole entry, looked up): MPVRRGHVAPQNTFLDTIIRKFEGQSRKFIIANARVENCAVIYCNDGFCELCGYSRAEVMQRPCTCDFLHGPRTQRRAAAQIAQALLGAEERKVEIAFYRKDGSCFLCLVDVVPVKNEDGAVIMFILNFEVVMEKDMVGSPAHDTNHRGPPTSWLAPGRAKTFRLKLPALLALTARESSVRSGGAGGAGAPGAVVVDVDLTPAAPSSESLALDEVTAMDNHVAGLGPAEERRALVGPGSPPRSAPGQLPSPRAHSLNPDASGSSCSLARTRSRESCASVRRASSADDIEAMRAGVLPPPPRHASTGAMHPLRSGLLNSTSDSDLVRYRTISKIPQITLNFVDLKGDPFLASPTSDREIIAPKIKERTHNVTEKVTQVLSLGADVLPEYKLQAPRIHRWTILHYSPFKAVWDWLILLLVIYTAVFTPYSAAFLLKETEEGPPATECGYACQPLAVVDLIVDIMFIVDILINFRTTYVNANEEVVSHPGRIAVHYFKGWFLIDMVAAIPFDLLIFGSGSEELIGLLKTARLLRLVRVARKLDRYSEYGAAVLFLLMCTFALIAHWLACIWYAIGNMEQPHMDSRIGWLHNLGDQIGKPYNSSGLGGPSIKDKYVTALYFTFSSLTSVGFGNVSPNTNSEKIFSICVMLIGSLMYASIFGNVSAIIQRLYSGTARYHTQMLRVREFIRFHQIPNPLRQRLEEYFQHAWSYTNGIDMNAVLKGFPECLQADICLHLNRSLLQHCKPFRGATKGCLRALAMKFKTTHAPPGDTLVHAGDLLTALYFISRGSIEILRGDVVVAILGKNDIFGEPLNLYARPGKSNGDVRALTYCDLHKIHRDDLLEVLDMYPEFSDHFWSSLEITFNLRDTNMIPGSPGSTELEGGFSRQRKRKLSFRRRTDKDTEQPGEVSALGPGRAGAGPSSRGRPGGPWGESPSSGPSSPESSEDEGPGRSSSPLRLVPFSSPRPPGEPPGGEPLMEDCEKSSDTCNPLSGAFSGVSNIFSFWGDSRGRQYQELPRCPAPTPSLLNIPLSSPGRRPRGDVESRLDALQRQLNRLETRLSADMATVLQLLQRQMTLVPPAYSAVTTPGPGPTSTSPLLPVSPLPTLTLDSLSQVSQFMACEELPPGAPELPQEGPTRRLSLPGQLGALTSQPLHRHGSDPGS

| SMILES | hERG current change (%, negative = inhibition) at 10uM [%] |
| --- | --- |
| C=CCNC(=O)C(=O)NCCCN1CCOCC1 | 23.7 |
| Cc1ccccc1N(Cc1nnc2n1CCCCC2)C(=O)Nc1ccccc1 | 16 |
| COCCNC(=O)c1cc(-c2ccc(-c3ccccc3)cc2)nc2ccccc12 | 1.12 |
| Cc1ccc(NC(=O)C2CC(=O)NC(Nc3cccc(C)c3)=N2)cc1 (centres unmarked) | 6.66 |
| COCCOC1CCN(C(=O)C2CCC(=O)N(CCc3ccccc3)C2)CC1 (centres unmarked) | 17.2 |
| CC(C)(C)c1ccc(NC(=O)CSc2n[nH]c(=O)n2-c2cccnc2)cc1 | 23.3 |
| COC(=O)c1ccccc1NC(=S)NC(=O)c1ccccc1C | -18.2 |
| O=[N+]([O-])c1ccc(-c2csc(NN=C3CCCC3)n2)cc1 | 15.5 |
| CCC(C)Oc1ccc(/C=C/c2[nH]c(=O)[nH]c(=O)c2[N+](=O)[O-])cc1OC (centres unmarked) | 0.289 |
| CCOC(=O)c1sc2nc3c(SCC(=O)O)cc(C(=O)c4ccccc4O)cn3c(=O)c2c1C | -17.8 |
| Cc1nc(SCc2ccc(OCCC(C)C)cc2)n[nH]1 | -3 |
| Cc1ccc(-n2c(C)cc(/C=C(\C#N)C(=O)NCC3CCCO3)c2C)cc1 (centres unmarked) | -21.3 |
| N=C1C(c2nc3ccccc3s2)=C(O)CN1C1CCCCC1 | -6.76 |
| O=C(CNC1CCCCC1)N1CCC2(CC1)OCCO2.O=C(O)C(=O)O | 21.4 |
| O=C(COc1ccc(F)cc1)Nc1ccc(S(=O)(=O)Nc2ncccn2)cc1 | -5.32 |
| COc1cc(/C=N/Nc2ccc(Cl)c(C(=O)O)c2)ccc1OC(=O)c1ccccc1F | 6.42 |
| COCCCn1c(=O)c2sccc2n2c(CCCC(=O)NCc3ccccc3)nnc12 | -10.7 |
| Cn1c(C(=O)N2CCCC(C(=O)NCCCSC3CCCCC3)C2)cc2sccc21 (centres unmarked) | -38.4 |
| NC(N)=N/N=C/c1ccc(Cl)c(Cl)c1 | -30 |
| CCCCNc1cc(Cl)nc(N)n1 | 0.797 |
| Cc1ccc2c(c1)[nH]c1c(=O)n(Cc3ccccn3)cnc12 | 1.9 |
| C=CCn1c(SCc2csc(C)n2)nc2sc3c(c2c1=O)CCCCC3 | -8.41 |
| CCOc1ccc(CN2C(=O)c3ccccc3C2=O)cc1C(=O)Nc1nnc(SCC)s1 | 4.47 |

| SMILES | hERG current change (%, negative = inhibition) at 10uM [%] |
| --- | --- |
| Cc1nc(NC(C)c2ccccc2)c2c3c(sc2n1)CCC3 (centres unmarked) | -17.8 |
| O=C(COC(=O)c1cnccn1)Nc1c(Cl)cc(Cl)cc1Cl | 5.3 |
| COc1ccc(N2CCN(C(=O)Cc3ccc(-n4c(=O)[nH]c5ccccc5c4=O)cc3)CC2)cc1 | -5.16 |
| NS(=O)(=O)c1ccc(NS(=O)(=O)c2ccc(NC(=O)c3ccc(-c4ccccc4)cc3)cc2)cc1 | 5.46 |
| Cc1ccc(S(=O)(=O)N2CCN(C(=O)Cc3ccsc3)CC2)c(C)c1 | -38.5 |
| C=CCOc1ccc(-c2nc3c(c(=O)[nH]c(=O)n3CCCC)n2C)cc1Br | -11.5 |
| CCOc1ccc(CCNC(=O)c2ccc(CS(=O)Cc3ccccc3Cl)o2)cc1 (centres unmarked) | -19 |
| O=C(NCC(c1ccco1)N1CCc2ccccc21)C(=O)Nc1ccccc1F (centres unmarked) | -28.5 |
| Nc1nonc1-n1nnc(C(=O)N/N=C/c2cccc(F)c2)c1-c1ccc2c(c1)OCO2 | 8.77 |
| O=C(NCc1cccs1)c1cc(S(=O)(=O)N2CCOCC2)c(Cl)cc1Cl | -81.6 |
| O=c1cc(O)c2sc(Nc3ccc(Cl)c(F)c3)nc2[nH]1 | 13.5 |
| COc1cccc(CC2(CO)CCCN(CC3=Cc4cc(Cl)ccc4OC3)C2)c1 (centres unmarked) | -7.49 |
| O=C(NC1CC2CCCC(C1)N2S(=O)(=O)c1ccccc1)c1ccco1 (centres unmarked) | 1.75 |
| O=C(COc1cc(F)ccc1[N+](=O)[O-])Nc1cccc(Br)c1 | 8.55 |
| CCCNC(=O)Cc1c(C)n(C(=O)c2ccc(Cl)cc2)c2ccc(OC)cc12 | 14.6 |
| CC(=O)N/C(=C\c1ccccc1)C(=O)OC/C=C/c1ccccc1 | -1.02 |
| Nc1nc2nccc(-c3ccc(Cl)cc3)n2n1 | -1.69 |
| Cn1c(=O)c2c(ncn2CC(=O)N/N=C/C=C/c2ccccc2[N+](=O)[O-])n(C)c1=O | 2.08 |
| CN(C)C1(CNCC(O)c2ccccc2)CCCCC1.O=C(O)C(=O)O (centres unmarked) | 5.66 |
| CCOC(=O)C(C)Sc1ncc(-c2ccc(Cl)cc2)cn1 (centres unmarked) | -37.5 |
| O=[N+]([O-])c1ccc2c(c1Nc1ccccc1)=NC1(CCCCC1)N=2 | 8.2 |
| CNC[C@H](O)c1cccc(O)c1.Cl | 13.8 |
| CC1(C)C2CC=C(/C=N/n3cnnc3)C1C2 (centres unmarked) | -15.4 |

| SMILES | hERG current change (%, negative = inhibition) at 10uM [%] |
| --- | --- |
| N#CC1=C(N)Oc2cc(N)ccc2C1c1ccc(Cl)cc1 (centres unmarked) | 9.39 |
| CSc1sc(C#N)c2c1/C(=N\O)CCC2 | 16.2 |
| Cc1cc(C)cc(OCC(=O)NC2=NCCS2)c1 | 9.56 |
| COc1cc(/C=C/C(=O)c2ccc3c(c2)OCO3)cc(OC)c1OC | 6.73 |
| Cc1ccc(-c2ccnc(-c3ccc(O)cc3)n2)cc1 | 13.4 |
| CC(C)CCN1C(=O)c2ccc(C(=O)Nc3ccccc3C(=O)O)cc2C1=O | 39.1 |
| CN1C(=O)c2ccccc2N(C)C1c1ccc(F)cc1 (centres unmarked) | 9.16 |
| CCC(C)NC(=O)COC(=O)c1oc2ccccc2c1CSc1ccc(Cl)cc1 (centres unmarked) | -14.5 |
| COc1ccc(C(=O)/C=C/c2cc(OC)c(O)c(OC)c2)c(F)c1 | -52.3 |
| C=CCOC(=O)C1=C[C@@H](c2ccccc2)[C@H](CCCO)[C@@H](OCC)O1 | -9.65 |
| Cc1ccc(-c2noc(CN(C)C(=O)Nc3ccc(F)cc3)n2)cc1 | 17.2 |
| CCN(CC)CCOCCOC(=O)C(CC)(CC)c1ccccc1 | -9.35 |
| CCCCc1nnc(NC(=O)C(C)Sc2nc(O)c(Cc3ccccc3)c(=O)[nH]2)s1 (centres unmarked) | 8.89 |
| COc1cc2cnncc2cc1OC | 1.01 |
| COC(=O)c1ccc(-n2c(CCC(=O)O)ccc2-c2ccc(C)cc2)cc1 | 2.4 |
| Cc1ccccc1CSc1nnc(NC(=O)Cc2cccs2)s1 | -7.3 |
| CCCSc1nnc(Nc2ccccc2C)s1 | -15.9 |
| N#Cc1ccccc1OCCN1C(=O)c2ccccc2C1=O | 2.76 |
| Cc1cc2c3c(ccc(C)c3n1)N=CN2c1ccccc1 | -38.8 |
| COc1ccc(Cl)cc1C(=O)Nc1ccc2c(c1)OCO2 | -17 |
| CCOC(=O)Cn1c(=NC(=O)c2cc(-c3cccs3)nc3ccccc23)sc2cc(S(N)(=O)=O)ccc21 | 23.4 |
| COc1ccc(NC(=O)CN(c2ccccc2)S(=O)(=O)c2ccccc2)c(OC)c1 | -19.3 |
| COc1ccc(C(=O)N2N=C(c3cccc(NS(C)(=O)=O)c3)CC2c2cccs2)cc1 (centres unmarked) | -30.6 |

| SMILES | hERG current change (%, negative = inhibition) at 10uM [%] |
| --- | --- |
| CCc1ccccc1NC(=O)c1ccc(NS(C)(=O)=O)cc1 | -42.1 |
| CCOC(=O)C1CCN(C(=O)CCCn2nc(C)c3c(C)n(-c4ccc(C)cc4)nc3c2=O)CC1 | -25.9 |
| CCOc1ccccc1N(C)C(=O)CCS(=O)(=O)c1ccc2c(c1)NC(=O)C(C)S2 (centres unmarked) | 3.85 |
| CN(C)CCNC(=O)c1cc2c(s1)-c1ccc(Cl)cc1SC2 | -81.1 |
| C=CCn1c(=O)c2ccccc2n2c(SCc3csc(-c4ccccc4)n3)nnc12 | -16.4 |
| Cc1ccc(Cl)cc1NC(=O)c1cccc(OC(F)F)c1 | -12.3 |
| CC(=O)c1ccc(NC(=O)c2ccc(CNc3c(N4CCOCC4)c(=O)c3=O)cc2)cc1 | -0.262 |
| COCC1CCN(Cc2cn[nH]c2-c2cc(OC)c(OC)c(OC)c2)CC1 | -38.1 |
| O=C(O)c1cc([N+](=O)[O-])c(NCCC2=CCCCC2)c([N+](=O)[O-])c1 | 28.6 |
| CCOc1ccc(N(CC(=O)Nc2ccc(C)c(Cl)c2)S(C)(=O)=O)cc1 | 2.01 |
| CC(=NCCCN1CCOCC1)c1c(O)n(-c2ccccc2C)c(=O)[nH]c1=O | 17.9 |
| CS(=O)(=O)N(CC(=O)N/N=C/c1ccc(OCC(=O)N2CCOCC2)cc1)c1ccccc1Cl | 7.12 |
| CC(C)OC(=O)c1cccc(C(=O)Oc2ccc(Br)cc2)n1 | -2.27 |
| CC(C)SCc1cc(N2CCCC2)nc(-c2ccccc2)n1 | 11 |
| CCc1ccc2oc(C(=O)N3CCN(C)CC3)cc(=O)c2c1 | -32.4 |
| CC(C)NC(=O)Cn1cc(C#N)c2cc(Br)ccc21 | 2.76 |
| CC1=C/C(=C\C=C(C#N)C#N)N(C)c2ccccc21 | 9.34 |
| CCSc1nccc(-c2nn(-c3ccc(C)cc3)ccc2=O)n1 | -33.6 |
| CCCCN(CC)C(=O)CSc1cc(=O)n(C)c2ccccc12 | -10.4 |
| CCN(CC)C(=S)SCC(=O)Nc1cccc(C(F)(F)F)c1 | -10 |
